{"source": "patent US20220267412", "key": {"[1]": {"molecular_target": "T1, rhsB1D, intermolecular disulfide-bonded dimeric form of rhsB1-cys344", "T1 chain": "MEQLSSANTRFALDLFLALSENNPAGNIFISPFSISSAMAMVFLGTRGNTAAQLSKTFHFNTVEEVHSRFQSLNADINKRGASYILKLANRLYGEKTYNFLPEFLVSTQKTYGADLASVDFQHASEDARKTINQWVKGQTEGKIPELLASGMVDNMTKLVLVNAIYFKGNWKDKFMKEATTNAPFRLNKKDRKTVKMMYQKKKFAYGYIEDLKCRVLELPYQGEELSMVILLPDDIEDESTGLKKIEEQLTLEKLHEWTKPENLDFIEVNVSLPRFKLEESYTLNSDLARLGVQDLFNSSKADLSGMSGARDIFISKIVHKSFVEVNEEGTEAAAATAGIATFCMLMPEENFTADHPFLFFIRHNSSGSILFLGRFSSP"}, "[2]": {"molecular_target": "T2, rhsB1M*, post-translationally modified (oxidized) monomeric form of rhsB1-cys344", "T2 chain": "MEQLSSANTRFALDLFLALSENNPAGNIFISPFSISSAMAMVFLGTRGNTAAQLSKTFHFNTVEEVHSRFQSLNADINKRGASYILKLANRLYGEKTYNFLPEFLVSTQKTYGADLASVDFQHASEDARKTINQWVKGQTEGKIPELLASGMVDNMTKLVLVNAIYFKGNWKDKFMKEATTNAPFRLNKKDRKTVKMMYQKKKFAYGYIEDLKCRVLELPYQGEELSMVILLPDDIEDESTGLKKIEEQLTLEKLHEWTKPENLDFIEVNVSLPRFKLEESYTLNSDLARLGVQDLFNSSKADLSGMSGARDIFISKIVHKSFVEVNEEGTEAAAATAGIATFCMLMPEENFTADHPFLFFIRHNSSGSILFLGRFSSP"}, "[3]": {"molecular_target": "T3, human serpin B1 C344S variant", "T3 chain": "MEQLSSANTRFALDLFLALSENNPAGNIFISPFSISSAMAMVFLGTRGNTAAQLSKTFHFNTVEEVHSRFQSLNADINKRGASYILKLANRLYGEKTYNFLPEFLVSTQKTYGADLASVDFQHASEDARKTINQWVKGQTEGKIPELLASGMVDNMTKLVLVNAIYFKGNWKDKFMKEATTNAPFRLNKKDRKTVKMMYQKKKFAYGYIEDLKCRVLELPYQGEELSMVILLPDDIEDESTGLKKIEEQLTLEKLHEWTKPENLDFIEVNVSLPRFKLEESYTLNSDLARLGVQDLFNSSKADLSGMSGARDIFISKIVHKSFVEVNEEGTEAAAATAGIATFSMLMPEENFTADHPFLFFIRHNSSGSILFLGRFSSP"}}}
{"protein": "porcine pancreatic elastase (protein) VVGGTEAQRNSWPSQISLQYRSGSSWAHTCGGTLIRQNWVMTAAHCVDRELTFRVVVGEHNLNQNDGTEQYVGVQKIVVHPYWNTDDVAAGYDIALLRLAQSVTLNSYVQLGVLPRAGTILANNSPCYITGWGLTRTNGQLAQTLQQAYLPTVDYAICSSSSYWGSTVKNSMVCAGGDGVRSGCQGDSGGPLHCLVNGQYAVHGVTSFVSRLGCNVTRKPTVFTRVSAYISWINNVIASN", "values": [{"measurement": "cleavage by PPE (SDS-PAGE)", "setting": "[1]", "result": "Both rhsB1D and rhsB1M* were specifically degraded to lower molecular species of approximately 38 kDa at E:I molar ratios ≥1:100 within a 30 minute time period"}, {"measurement": "cleavage by PPE (SDS-PAGE)", "setting": "[2]", "result": "Both rhsB1D and rhsB1M* were specifically degraded to lower molecular species of approximately 38 kDa at E:I molar ratios ≥1:100 within a 30 minute time period"}, {"measurement": "cleavage by PPE (SDS-PAGE of reaction products)", "setting": "[3]", "result": "the C344S serpin B1 variant is rapidly cleaved and inactivated by PPE at enzyme:inhibitor ratios that would normally form SDS and heat stable complexes with wild-type (C344) serpin B1"}]}
